Experimental data published in the supplement of paper PMC4967469.
Lines with a small IC50 respond at low doses; a fit beyond the top or the lowest dose is shown as a bound at that dose. AUC is the area under the same curve over the 256-fold range up to the top dose, as a fraction: 1 means no effect, lower means more sensitive. For part of these data: An inferred top dose is not printed in the source and was worked back from the curve model.

Legend:
Assay in all cases: Viability of human cancer cell lines after 72 h of drug (GDSC screen)
Temozolomide = compound: Cn1nnc2c(C(N)=O)ncn2c1=O [Temozolomide]; details: top dose 30 µM
Description: (§1)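 Human cancer cell lines in 384-well plates, medium with 10% serum, drug for 72 h over a 256-fold dose range (nine 2-fold or five 4-fold steps up to the top dose). Adherent lines were fixed and stained with the nucleic acid dye Syto60, suspension lines read with resazurin; signal relative to control wells, capped at 0 and 100%. One two-parameter sigmoid per drug and line, fitted in a mixed model over all curves with the slope shared within a line.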

CI-1040 = compound: O=C(NOCC1CC1)c1ccc(F)c(F)c1Nc1ccc(I)cc1Cl [CI-1040]; details: top dose 10 µM; top dose inferred
Description: as §1

Tubastatin A = compound: CN1CCc2c(c3ccccc3n2Cc2ccc(C(=O)NO)cc2)C1 [Tubastatin A]; details: top dose 20 µM
Description: as §1

XL-880 = compound: COc1cc2c(Oc3ccc(NC(=O)C4(C(=O)Nc5ccc(F)cc5)CC4)cc3F)ccnc2cc1OCCCN1CCOCC1 [XL-880]; details: top dose 5.12 µM; top dose inferred
Description: as §1

IPA-3 = compound: Oc1ccc2ccccc2c1SSc1c(O)ccc2ccccc12 [IPA-3]; details: top dose 32 µM; top dose inferred
Description: as §1

Cell Line	AUC (Temozolomide)	IC50 (Temozolomide)	AUC (CI-1040)	IC50 (CI-1040)	AUC (Tubastatin A)	IC50 (Tubastatin A)	AUC (XL-880)	IC50 (XL-880)	AUC (IPA-3)	IC50 (IPA-3)
BALL-1 (B-cell leukaemia, suspension)	0.985	> 30 µM	0.973	> 10 µM	–	–	–	–	–	–
NCI-H2052 (mesothelioma, adherent)	–	–	0.916	> 10 µM	0.963	> 20 µM	0.918	> 5.12 µM	0.972	> 32 µM
JEKO-1 (B-cell lymphoma, suspension)	0.981	> 30 µM	0.913	> 10 µM	–	–	–	–	–	–
MM1S (myeloma, suspension)	–	–	0.79	4.2 µM	–	–	–	–	–	–
KARPAS-1106P (B-cell lymphoma, suspension)	0.98	> 30 µM	0.866	6.44 µM	–	–	–	–	–	–
DAN-G (pancreas, adherent)	–	–	0.892	9.18 µM	0.99	> 20 µM	0.72	1.22 µM	0.984	> 32 µM
U-266 (myeloma, semi-adherent)	0.964	> 30 µM	0.764	4.91 µM	–	–	–	–	–	–
JHOS-4 (ovary, adherent)	0.967	> 30 µM	0.974	> 10 µM	–	–	–	–	–	–
SUP-B8 (B-cell leukaemia, suspension)	0.976	> 30 µM	0.987	> 10 µM	–	–	–	–	–	–
NCI-H1341 (small cell lung carcinoma, suspension)	0.987	> 30 µM	0.958	> 10 µM	–	–	–	–	–	–
KMS-11 (myeloma, suspension)	0.991	> 30 µM	0.94	> 10 µM	0.959	> 20 µM	0.518	0.356 µM	–	–
RH-18 (rhabdomyosarcoma, adherent)	0.979	> 30 µM	0.9	> 10 µM	–	–	–	–	–	–
769-P (kidney, adherent)	0.981	> 30 µM	–	–	0.911	> 20 µM	0.614	0.681 µM	0.763	12.6 µM
SN12C (kidney, adherent)	0.975	> 30 µM	–	–	0.985	> 20 µM	0.906	> 5.12 µM	0.985	> 32 µM
CL-40 (large intestine, adherent)	0.966	> 30 µM	0.833	> 10 µM	–	–	–	–	–	–
MDA-MB-361 (breast, adherent)	0.974	> 30 µM	0.883	> 10 µM	0.954	> 20 µM	0.946	> 5.12 µM	–	–
OACM5-1 (oesophagus, semi-adherent)	0.98	> 30 µM	0.946	> 10 µM	0.851	18.5 µM	0.441	0.217 µM	–	–
BCPAP (thyroid, adherent)	0.969	> 30 µM	–	–	0.959	> 20 µM	0.524	0.37 µM	0.875	26.4 µM

Cell Line	AUC (Temozolomide)	IC50 (Temozolomide)	AUC (CI-1040)	IC50 (CI-1040)	AUC (Tubastatin A)	IC50 (Tubastatin A)	AUC (XL-880)	IC50 (XL-880)	AUC (IPA-3)	IC50 (IPA-3)
KMRC-1 (kidney, adherent)	–	–	0.893	> 10 µM	0.97	> 20 µM	0.734	1.56 µM	0.862	30 µM
CRO-AP2 (B-cell lymphoma, suspension)	0.836	16.3 µM	0.942	> 10 µM	–	–	–	–	–	–
BPH-1 (prostate, adherent)	0.957	> 30 µM	–	–	0.954	> 20 µM	0.608	0.654 µM	0.887	> 32 µM
BEN (non-small cell lung carcinoma, adherent)	0.985	> 30 µM	–	–	0.955	> 20 µM	0.767	2.18 µM	0.976	> 32 µM
GMS-10 (glioma, adherent)	–	–	0.897	> 10 µM	0.983	> 20 µM	0.778	2.06 µM	0.881	> 32 µM
COR-L105 (lung adenocarcinoma, adherent)	0.967	> 30 µM	–	–	0.853	> 20 µM	0.674	1.1 µM	0.702	8.51 µM
A204 (rhabdomyosarcoma, adherent)	0.975	> 30 µM	–	–	0.887	> 20 µM	0.367	0.123 µM	0.974	> 32 µM
U031 (kidney, adherent)	0.983	> 30 µM	–	–	0.952	> 20 µM	0.767	1.97 µM	0.771	12.7 µM
PANC-10-05 (pancreas, adherent)	0.974	> 30 µM	–	–	0.935	> 20 µM	0.715	1.57 µM	0.836	30.4 µM
HCC-827 (lung adenocarcinoma, adherent)	–	–	0.857	> 10 µM	0.979	> 20 µM	–	–	0.897	> 32 µM
MOLM-16 (acute myeloid leukaemia, suspension)	0.97	> 30 µM	0.769	3.33 µM	–	–	–	–	–	–
PA-1 (ovary, adherent)	–	–	0.891	7.2 µM	0.7	3.95 µM	0.418	0.201 µM	0.757	8.93 µM
VMRC-RCW (kidney, adherent)	–	–	0.93	> 10 µM	0.983	> 20 µM	0.703	1.13 µM	0.857	23.1 µM
CAL-54 (kidney, adherent)	0.983	> 30 µM	–	–	0.965	> 20 µM	0.623	0.737 µM	0.955	> 32 µM
NCI-H2170 (lung squamous cell carcinoma, adherent)	0.982	> 30 µM	–	–	0.98	> 20 µM	0.919	> 5.12 µM	0.966	> 32 µM
COLO-792 (melanoma, adherent)	0.987	> 30 µM	–	–	0.987	> 20 µM	0.893	> 5.12 µM	0.982	> 32 µM
MDA-MB-231 (breast, adherent)	0.943	> 30 µM	0.773	4.13 µM	0.978	> 20 µM	–	–	0.949	> 32 µM
